According to PubChem BioAssay AID743279 (National Center for Advancing Translational Sciences (NCATS), 2014):
Several values for one entry are separate records, joined by “and”; a condition that tells them apart may be missing. Identical values can stand only once. Hit rate of the full screen: of about 360,000 compounds, about 17,000 (4.7%) were called active. Inconclusive means that the source gave no clear call. Such entries were picked first, then a sample of the others. No stated cut-off is given here; in the data, active means activity change below about -50%; inconclusive means mostly about -30% to -49%; inactive means weaker than that.

Experiment: qHTS for Inhibitors of Inflammasome Signaling: IL-1-beta AlphaLISA Primary Screen
Details: THP-1 LPS/ATP IL-1B secretion, 16 h; at 57.5 µM, hits give low values
Outline: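 Secreted IL-1B measured by AlphaLISA bead assay after 16 h compound exposure of THP-1 cells; compounds (final up to 57.5 uM) added 1 h before LPS (250 ng/mL) and ATP (1.25 mM) stimulation; lower signal means less secretion.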
On the % scale 0 is the no-effect control and ±100 the full control effect.

SMILES	activity change
COc1ccc(-n2c(=S)[nH]c3cc(C(=O)NCCCN4CCOCC4)ccc3c2=O)cc1	inactive: 43.1%
COc1ccc(Br)cc1S(=O)(=O)n1c([N+](=O)[O-])cnc1C	inactive: 20.4%
Cc1ccc(S(=O)(=O)Nc2ccc3nc(C)oc3c2)cc1	inactive: 12.6%
Cc1cnc(NC(=O)CSc2ccccc2)s1	inactive: 8.58%
Cc1cccc(N2CC(C(=O)Nc3ccc(S(=O)(=O)N4CCCCC4)cc3)CC2=O)c1C (stereo unspecified)	inconclusive: -41.5%
Cc1ccc(S(=O)(=O)NCC(=O)NCC(=O)N(C)Cc2ccc3ccccc3c2)cc1C	active: -52%
O=C(CCCC(=O)N1CCCc2ccccc21)N1CCCc2ccccc21	inconclusive: -43.9%
COc1ccc(NC(=O)CC(C)c2ccccc2)cc1S(=O)(=O)N1CCOCC1 (stereo unspecified)	inactive: 16.2%
O=C(NC(c1ccccc1)c1ccsc1)C1CCN(Cc2ccc(Oc3ccccc3)cc2)CC1 (stereo unspecified)	inconclusive: -44.6%
N#Cc1cccc(NC(=O)COc2ccc(-n3ccnc3)cc2)c1	inconclusive: -47.3%
COC(=O)C1=C(C)N(c2cc(C)cc(C)c2)/C(=C/c2ccc(O)cc2)C1=O	active: -57.4%
CCN(c1cccc(C)c1)c1nc2ccsc2c(=O)s1	inactive: 25.5%
c1ccc2c(c1)C(=NC1CCCCC1)NC2=NC1CCCCC1	inconclusive: -46.1%
CN(C)S(=O)(=O)c1cccc(NC(=O)c2cc([N+](=O)[O-])ccc2N2CCCCC2)c1	inconclusive: -34.7%
CC(C)CC1=C/C(=C/c2ccc(-c3ccccc3)o2)C(=O)O1	inactive: 0%
CCOC(=O)C(=Cc1cc(=O)c(OC)co1)C(=O)OCC	active: -97%
COc1ccc(C(=O)/C=C\c2ccc(NC(=O)c3cccs3)cc2)cc1	inconclusive: -48.6%
Cc1ccc(SCCCCN2CCNCC2)cc1	inactive: -0.825%
Cc1[nH]c2ccccc2c1/C=N/NC(=O)C1CC1(c1ccccc1)c1ccccc1 (stereo unspecified)	inconclusive: -33.9%
CC1=CC(C)(C)N(C(=O)CNC2CCCCC2)c2cc(C)ccc21	inactive: -20.7%
O=C1CC(Sc2ccc(Cl)cc2)C(=O)N1Cc1ccncc1 (stereo unspecified)	inactive: -3.26%
COc1cccc2cc(C(=O)NC3CC(C)(C)NC(C)(C)C3)c(=O)oc12	inactive: -6.76%

SMILES	activity change
O=C(COC(=O)CNS(=O)(=O)c1cccc(Br)c1)NC(=O)Nc1ccc2c(c1)OCCO2	inactive: 19%
O=C(NCC(=O)N1CCCCC1)c1ccc2ccccc2c1	inconclusive: -34%
O=C(NN1C(=O)c2ccccc2C1=O)c1ccccc1[N+](=O)[O-]	inactive: 7.96%
CC1=CC(=O)C=CC1=Nc1ccc(N(C)C)cc1	active: -121%
Cc1ccc(-n2nc3c(=O)n(C(C)C(=O)NCc4ccc5c(c4)OCO5)nc(C)c3c2C)cc1 (stereo unspecified)	inconclusive: -39.6%
CCN(Cc1ccc(OC)c(COC)c1)CC1CCCN(CCc2cccc(F)c2)C1 (stereo unspecified)	inconclusive: -48.8%
CC[C@]12c3[nH]c4cc(-c5ccco5)ccc4c3CCN1C(=O)[C@@H](CC(=O)NCc1ccc(OC)c(OC)c1)C[C@@H]2C(=O)N1CCN(C(=O)c2ccco2)CC1	inconclusive: -37%
CC(C)Oc1cc(NC(=O)CS(=O)CC(=O)Nc2cccc(C(F)(F)F)c2)c(Cl)cc1Cl (stereo unspecified)	active: -63.5%
COc1ccc(CCNc2cc(=O)[nH]c(N)n2)cc1	inconclusive: -41%
CCOC(=O)C1=C(C)NC(C)=C(C(=O)OCC)C1c1ccc([N+](=O)[O-])s1	inactive: 3.77%
CCCCCCC(=O)N/N=C1\CCCc2ccccc21	inactive: 14.1%
Cc1ccc(-c2nc(N/N=C/c3cccnc3)c3ccccc3n2)cc1	inconclusive: -42%
COC(=O)Nc1ccc2c(c1)N(C(=O)CCN(C)C)c1ccccc1CC2	active: -56.6%
CCc1cc(OCCCCNCc2ccccc2)ccc1Cl	active: -102%
O=C(CNS(=O)(=O)c1ccc(Br)s1)NCc1ccc(F)cc1	inactive: -15.1%
COc1ccc(C(N)=O)c(OCC(=O)Nc2cc(C)on2)c1	inactive: 11.5%
COc1cc(Br)cc(-c2nc3c(c(=O)[nH]c(=O)n3Cc3ccccc3)n2C)c1O	inactive: 27.8%
Clc1ccc(OCCCCSc2ncccn2)cc1	inconclusive: -30.2%
COc1ccc(-c2nc(CS(=O)CC(=O)NCc3ccc4c(c3)OCO4)c(C)o2)cc1OC (stereo unspecified)	inconclusive: -36.5%
COc1ccc(N(C)S(=O)(=O)c2cccc(C(=O)N3CCN(c4cccc(C)c4C)CC3)c2)cc1	inconclusive: -37.4%
O=C(O)c1ccc(-n2ncc(Cl)c(Cl)c2=O)cc1	active: -102%
COC(=O)c1oc2ccc(Cl)cc2c1NC(C)=O	inactive: 6.95%

SMILES	activity change
Cc1ccc(S(=O)(=O)N2CCCCC2)cc1C(=O)Nc1ccccn1	inactive
O=C(Cc1ccc(Cl)cc1)Nc1ccc(CN2CCCCC2)cc1	inconclusive: -40%
Cc1c(O)cccc1C(=O)N[C@@H](CSc1ccccc1)[C@H](O)CN1C[C@H]2CCCC[C@H]2C[C@H]1C(=O)NC(C)(C)C	inconclusive: -44.2% and inconclusive: -45.7%
N/C(=N\OC(=O)CSc1ccccc1)c1ccccn1	inconclusive: -34.3%
Cn1ncc(Cl)c1C(=O)N1CCC(Cc2ccccc2)CC1	inconclusive: -35.3%
Cc1ccc(OCc2nc(C#N)c(N3CCCCC3)o2)cc1	inconclusive: -43.2%
Cc1ccc(-n2nc3c(N4CCC(C(=O)NCc5cccc(F)c5)CC4)nnc(C)c3c2C)cc1	inconclusive: -50%
C/C(=N\NC(=O)c1cc(-c2ccc(Br)s2)[nH]n1)c1ccncc1	inconclusive: -45.5%
COc1cc(-c2ccc3c(=O)c4ccccc4n(C)c3c2)cc(OC)c1OC	inconclusive: -39.6%
c1ccc(CN2CCN(C(c3ccccc3)c3nnnn3Cc3ccccc3)CC2)cc1 (stereo unspecified)	active: -58.4%
C/C(=N\NC(=O)c1nn(C)cc1Cl)c1ccncc1	inactive: -1.78%
CCOC(=O)COc1cccc(C2NC(=O)c3ccccc3O2)c1 (stereo unspecified)	inconclusive: -39.6%
CN(CC(=O)Nc1cccc(F)c1)C(=O)c1ccc(COc2ccccc2)cc1	inconclusive: -37.3%
CC(C)Oc1ccc(F)cc1-c1cc(C(=O)NCc2cc(C(F)(F)F)cc(C(F)(F)F)c2)[nH]n1	inconclusive: -36%
COc1ccc(CNC(=O)C2CCN(S(=O)(=O)c3ccc4c(c3)N(C(C)=O)CCO4)CC2)cc1	inactive: 27.5%
COc1cccc(NC(=O)CN(C)C(=O)CSCC(=O)Nc2ccc(C)cc2)c1	inactive: 35.8%
O=C(NCc1ccccc1F)C1CCN(S(=O)(=O)c2ccccc2)CC1	inconclusive: -30.1%
COc1ccccc1C(=O)NN=C1CCN(Cc2ccccc2)CC1	inactive: -4.59%
Cc1ccc(/C=c2\sc3n(c2=O)CN(c2ccc(Br)cc2)CN=3)o1	inactive: -12.7%
COC(=O)Cn1c(=NC(=O)c2cc(-c3cccs3)nc3ccccc23)sc2cc(S(N)(=O)=O)ccc21	inactive: -11.5%
COc1ccc(/C=C2\SC(=Nc3ccccc3Cl)NC2=O)c(OC)c1	active: -52.3%
O=C(CCn1c(=O)c2ccccc2n(Cc2ccccc2)c1=O)NC1CCN(Cc2ccccc2)CC1	inconclusive: -30.3%

SMILES	activity change
CCOC(=O)CCCCC(=O)c1[nH]c(=O)[nH]c1Cn1cnc2ccccc21	active: -53.9%
O=C(Nc1cnn(C23CC4CC(CC(C4)C2)C3)c1)c1cc(-c2ccccc2)on1	inactive: -16%
COc1ccc(CCNC(=O)CSc2nnc3ccc(-c4cccnc4)nn23)cc1	inconclusive: -46.4%
CN(C)S(=O)(=O)c1cccc(C(=O)Nc2cc(Cl)cc(Cl)c2)c1	inconclusive: -47.7%
Cc1ccc(NC(=O)c2ccc(CNc3c(N4CCC(C)CC4)c(=O)c3=O)cc2)cc1	inactive: 12.3%
O=C(C1=C(O)C(=O)N(Cc2cccnc2)C1c1ccccn1)c1cccs1 (stereo unspecified)	inactive: 8.5%
COc1ccc(-n2c(=O)c3c4c(sc3n3cnnc23)CC(C)CC4)cc1 (stereo unspecified)	inconclusive: -34%
COc1ccc(C(=O)Nc2ccc(N3CCN(C(=O)c4ccccc4C)CC3)cc2)cc1	inconclusive: -39.8%
CC(C)(C)C(CN1CCCC1)OC(=O)c1ccccc1 (stereo unspecified)	inactive: 4.49%
CC1CN(S(=O)(=O)N2CCOCC2)CCN1S(=O)(=O)N1CCOCC1 (stereo unspecified)	inactive: -6.87%
O=C(COc1coc(CN2CCN(c3ccccc3F)CC2)cc1=O)NCC1CCCO1 (stereo unspecified)	inactive: 14.2%
O=C(Nc1cc(S(=O)(=O)N2CCOCC2)ccc1N1CCCC1)c1cccnc1Cl	inactive: 5.64%
CCCC(=O)N1CCCC(c2nc(-c3cccc(OC)c3)no2)C1 (stereo unspecified)	inactive: -6.9%
N#CCCN(Cc1ccccc1)C(C(=O)NC1CCCCC1)c1ccnc2ccccc12 (stereo unspecified)	inconclusive: -31.7%
CC(=O)Nc1ccc(NC(=O)CSc2nc(=O)n(CCCN3CCOCC3)c3c2CCC3)cc1	inactive: 0.982%
O=C(Nc1ccncc1)c1ccc(Cl)c(Cl)c1	inconclusive: -40.9%
Fc1ccc(NC(=S)Nc2ccc(F)c(Cl)c2)cc1Cl	active: -77.2%
O=C(NCc1ccc(F)cc1)c1ccc(N2CCc3ccccc32)c([N+](=O)[O-])c1	inconclusive: -44.3%
Cc1nc2ccc(NC(=O)CCS(=O)(=O)c3ccc(Cl)cc3)cc2s1	inactive: 64.8%
CCCSc1ccc(-c2nn(-c3ccccc3)cc2/C=C(/C#N)C(=O)N2CCOCC2)cc1	inconclusive: -36.9%
